Assay results as given in US20220089722A1 (NANTONG YICHEN BIOPHARMA, published 2022).

B1: IgFD-18(anti-CD3/EGFR) (bispecific antibody, human IgG1, kappa)
chain 1: DIQMTQSPSSLSASVGDRVTITCQASQDISNYLNWYQQKPGKAPKLLIYDASNLETGVPSRFSGSGSGTDFTFTISSLQPEDIATYFCQHFDHLPLAFGGGTKVEIKGGGGSGGGGSGGGGSQVQLQESGPGLVKPSETLSLTCTVSGGSVSSGDYYWTWIRQSPGKGLEWIGHIYYSGNTNYNPSLKSRLTISIDTSKTQFSLKLSSVTAADTAIYYCVRDRVTGAFDIWGQGTMVTVSSGGSGGSGGGGSGGGGSEVQLVESGGGLVQPGGSLRLSCAASGFTFNTYAMNWVRQAPGKGLEWVARIRSKYNNYATYYADSVKDRFTISRDDSKNTLYLQMNSLRAEDTAVYYCVRHGNFGNSYVSWFAYWGQGTLVTVSSASTKGPSVFPLAPSSKSTSGGTAALGCLVKDYFPEPVTVSWNSGALTSGVHTFPAVLQSSGLYSLSSVVTVPSSSLGTQTYICNVNHKPSNTKVDKKV[letters of human IgG1 Fc with changes not shown]
chain 2: QAVVTQEPSLTVSPGGTVTLTCRSSTGAVTTSNYANWVQQKPDHLFRGLIGGTNKRAPGTPARFSGSLLGDKAALTISGAQPEDEAEYYCALWYSNLWVFGGGTKLTVLKRTVAAPSVFIFPPSDEQLKSGTASVVCLLNNFYPREAKVQWKVDNALQSGNSQESVTEQDSKDSTYSLSSTLTLSKADYEKHKVYACEVTHQGLSSPVTKSFNRGE[letters of human IgG1 Fc with changes not shown]
B2: IgFD-23(anti-CD3/CLL-1) (bispecific antibody, human IgG1, kappa)
chain 1: EVQLVESGGGLVQPGGSLRLSCAASGFTFNTYAMNWVRQAPGKGLEWVARIRSKYNNYATYYADSVKDRFTISRDDSKNTLYLQMNSLRAEDTAVYYCVRHGNFGNSYVSWFAYWGQGTLVTVSSASTKGPSVFPLAPSSKSTSGGTAALGCLVKDYFPEPVTVSWNSGALTSGVHTFPAVLQSSGLYSLSSVVTVPSSSLGTQTYICNVNHKPSNTKVDKKV[letters of human IgG1 Fc with changes not shown]
chain 2: QAVVTQEPSLTVSPGGTVTLTCRSSTGAVTTSNYANWVQQKPDHLFRGLIGGTNKRAPGTPARFSGSLLGDKAALTISGAQPEDEAEYYCALWYSNLWVFGGGTKLTVLKRTVAAPSVFIFPPSDEQLKSGTASVVCLLNNFYPREAKVQWKVDNALQSGNSQESVTEQDSKDSTYSLSSTLTLSKADYEKHKVYACEVTHQGLSSPVTKSFNRGE[letters of human IgG1 Fc with changes not shown]GGSGGSGGGGSGGGGSEVQLVESGGGLVKPGGSLRLSCAVSGFSFSGNSMSWVRQAPGKGLEWVSYIDRDGSHIFYTDSVRGRFTISRDDAKNSLYLQMNSLRTEDTAVYYCVAEIGARDFLHWGQGTLVTVSSGGGGSGGGGSGGGGSDIQMTQSPSSLSASVGDRVTITCRASQSISSYLNWYQQKPGKAPKLLIYGASSLQSGVPSRFSGSGSGTDFTLTISSLQPEDFATYYCQQYNSYWTFGQGTKVDIK
B3: IgFD-11(anti-CD3/EGFR) (bispecific antibody, human IgG1, kappa)
chain 1: EVQLVESGGGLVQPGGSLRLSCAASGFTFNTYAMNWVRQAPGKGLEWVARIRSKYNNYATYYADSVKDRFTISRDDSKNTLYLQMNSLRAEDTAVYYCVRHGNFGNSYVSWFAYWGQGTLVTVSSASTKGPSVFPLAPSSKSTSGGTAALGCLVKDYFPEPVTVSWNSGALTSGVHTFPAVLQSSGLYSLSSVVTVPSSSLGTQTYICNVNHKPSNTKVDKKV[letters of human IgG1 Fc with changes not shown]
chain 2: QAVVTQEPSLTVSPGGTVTLTCRSSTGAVTTSNYANWVQQKPDHLFRGLIGGTNKRAPGTPARFSGSLLGDKAALTISGAQPEDEAEYYCALWYSNLWVFGGGTKLTVLKRTVAAPSVFIFPPSDEQLKSGTASVVCLLNNFYPREAKVQWKVDNALQSGNSQESVTEQDSKDSTYSLSSTLTLSKADYEKHKVYACEVTHQGLSSPVTKSFNRGE[letters of human IgG1 Fc with changes not shown]GGSGGSGGGGSGGGGSDIQMTQSPSSLSASVGDRVTITCQASQDISNYLNWYQQKPGKAPKLLIYDASNLETGVPSRFSGSGSGTDFTFTISSLQPEDIATYFCQHFDHLPLAFGGGTKVEIKGGGGSGGGGSGGGGSQVQLQESGPGLVKPSETLSLTCTVSGGSVSSGDYYWTWIRQSPGKGLEWIGHIYYSGNTNYNPSLKSRLTISIDTSKTQFSLKLSSVTAADTAIYYCVRDRVTGAFDIWGQGTMVTVSS
B4: IgFD-19(anti-CD3/EGFR) (bispecific antibody, human IgG1, kappa)
chain 1: EVQLVESGGGLVQPGGSLRLSCAASGFTFNTYAMNWVRQAPGKGLEWVARIRSKYNNYATYYADSVKDRFTISRDDSKNTLYLQMNSLRAEDTAVYYCVRHGNFGNSYVSWFAYWGQGTLVTVSSASTKGPSVFPLAPSSKSTSGGTAALGCLVKDYFPEPVTVSWNSGALTSGVHTFPAVLQSSGLYSLSSVVTVPSSSLGTQTYICNVNHKPSNTKVDKKV[letters of human IgG1 Fc with changes not shown]
chain 2: DIQMTQSPSSLSASVGDRVTITCQASQDISNYLNWYQQKPGKAPKLLIYDASNLETGVPSRFSGSGSGTDFTFTISSLQPEDIATYFCQHFDHLPLAFGGGTKVEIKGGGGSGGGGSGGGGSQVQLQESGPGLVKPSETLSLTCTVSGGSVSSGDYYWTWIRQSPGKGLEWIGHIYYSGNTNYNPSLKSRLTISIDTSKTQFSLKLSSVTAADTAIYYCVRDRVTGAFDIWGQGTMVTVSSGGSGGSGGGGSGGGGSQAVVTQEPSLTVSPGGTVTLTCRSSTGAVTTSNYANWVQQKPDHLFRGLIGGTNKRAPGTPARFSGSLLGDKAALTISGAQPEDEAEYYCALWYSNLWVFGGGTKLTVLKRTVAAPSVFIFPPSDEQLKSGTASVVCLLNNFYPREAKVQWKVDNALQSGNSQESVTEQDSKDSTYSLSSTLTLSKADYEKHKVYACEVTHQGLSSPVTKSFNRGE[letters of human IgG1 Fc with changes not shown]

Legend:
[1] = target: T1, EGFR on F98-EGFR cells (UniProt P00533); assay: cell-based or functional assay
[2] = target: T1, EGFR on F98-EGFR cells; assay: flow cytometry on F98-EGFR cells
Experimental: F98-EGFR cells (a DMEM containing 10% FBS, 200 μg/ml G418) were cultured. 2×10⁵ cells were washed by precooled PBS for 3 times, and blocked by 2% FBS (soluble to PBS). IgFD-8, IgFD-9, IgFD-10, IgFD-11, IgFD-18, IgFD-19, IgFD-25, IgFD-26 or IgFD-31 (aEGFR expressed in a laboratory as a control) was added and incubated for 2 h at 4° C. (cells were gently mixed during incubation), unbounded antibodies were washed by 2% FBS (soluble to PBS), and then the remaining cells were incubated by FITC anti-human IgGFc(KPL, Inc., MD) for 1 h at 4° C., and washed by 2% FBS (soluble to PBS) for flow cytometry analysis. As shown in FIG. 7 and Table 4, the anti-CD3/anti-EGFR heterodimers in different forms of fusion could bind to EGFR on F98-EGFR cells, and there was no significant difference in the binding capacity of different heterodimers to F98-EGFR.

[3] = target: T2, CD3 on T cells (Jurkat T cells; PBMC-T cells); assay: flow cytometry on activated T cells from PBMCs (PBMC-T)
T2 construct: whole, on cells; the target is inferred from the anti-CD3 arm of the constructs
T2 sequence (P07766 23-207): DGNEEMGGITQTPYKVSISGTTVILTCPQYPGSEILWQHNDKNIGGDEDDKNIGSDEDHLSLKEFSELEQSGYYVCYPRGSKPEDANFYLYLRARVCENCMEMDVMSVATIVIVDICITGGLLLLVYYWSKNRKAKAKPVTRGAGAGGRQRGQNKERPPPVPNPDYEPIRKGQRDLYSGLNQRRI
Experimental: Peripheral blood of healthy volunteers was collected, and Ficoll-Hypaque(GE Healthcare) was used to separate peripheral blood monouclear cells (PBMCs) via gradient centrifugation. The purified PBMCs were resuspended in RPMI 1640/10% FBS complete medium. PBMCs were incubated with immobilized anti-CD3 (Clone OKT3, eBiosciences), and 2 μg mL anti-CD28 (Clone CloneCD28.2, eBiosciences) at 37° C. for 48 h. The activated T cells were then expanded for 10d with 20 U/ml IL2(R&D Systems). 2×10⁵ cells were washed by precooled PBS for 3 times, and blocked by 2% FBS (in PBS), and then incubated with IgFD-8, IgFD-18 or IgFD-19 at different concentrations (25 nM, 7.5 nM, 2.5 nM, 0.75 nM or 0.25 nM) for 1 h at 4° C. (cells were gently mixed during incubation). Unbounded antibodies were washed by 2% FBS (in PBS), and the cells were incubated with FITC anti-human IgGFc (KPL, Inc., MD) for 1 h at 4° C. (cells were gently mixed during incubation). The cells were subjected for flow cytometry analysis after the unbounded antibodies were washed by 2% FBS (in PBS).

[4] = target: T3, CLL-1 on HL-60 cells (UniProt Q5QGZ9 1-265, limits assumed); assay: cell-based or functional assay
T3 sequence (looked up): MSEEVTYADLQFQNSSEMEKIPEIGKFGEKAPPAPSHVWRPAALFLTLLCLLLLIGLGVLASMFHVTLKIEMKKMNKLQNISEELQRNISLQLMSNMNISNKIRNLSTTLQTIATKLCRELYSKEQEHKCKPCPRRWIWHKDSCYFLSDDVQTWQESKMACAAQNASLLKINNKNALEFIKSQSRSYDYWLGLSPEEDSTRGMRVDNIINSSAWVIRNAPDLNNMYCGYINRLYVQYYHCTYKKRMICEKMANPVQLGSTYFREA

[5] = target: T4, hEGFR-6-his (SinoBiological) (human, UniProt P00533 part only); assay: ELISA, hEGFR-6-his coated 100 ng/well, anti-human IgG Fc-HRP
T4 construct: Bought protein coated on the ELISA plate; also called human EGFR
Experimental: hEGFR-6-his (SinoBiological) (100 ng/well) was coated in a 96-well plate, and incubated overnight at 4° C. After blocked by PBST (0.5% Tween-20 in PBS) containing 2% skim milk powder for 1 h at room temperature, the gradiently diluted heterodimeric antibodies IgFD-11, IgFD-24, IgFD-25, IgFD-26, IgFD-31, and anti-EGFR were added for incubation for 2 h at room temperature, respectively. After washing with PBST containing 2% skim milk powder for 4-5 times, an Anti-Human IgG (FC) Antibody-HRP (KPL) secondary antibody was added for incubation for 1 h at room temperature, and then washed by PBST containing 2% skim milk powder for 4-5 times, reading was performed at 650 nm after color development with a TMB colour reagent (BioLegend, Cat. 421101).

Binder	Promotion for the specific killing effect of PBMCs on target cells by heterodimers (EC50, pM); F98-EGFR cells, LDH assay [1] [pM]	Kd [2] [nM]	Kd [3] [nM]	Promotion for the specific killing effect of PBMCs on target cells by heterodimers (EC50, pM); HL-60 cells, flow cytometry [4] [pM]	binding result [5]
B1	2600	0.168	29.1	–	–
B2	–	–	–	60.9	–
B3	–	–	–	–	binds
B4	975	0.771	26.6	–	–
